# Several values for one entry are separate records, joined by “and”; a condition that tells them apart may be missing. Equal entries are not always repeated. This list was built around the results that the source calls inconclusive (neither active nor inactive); the mix of calls is not that of the screen. Where the call is inconclusive, the potency comes from a doubtful curve fit. Activity calls are given as the source filed them. Unless noted, the call rests on the fitted dose curve; in most records, active means well fitted curve in the direction sought with a large enough effect in the repeat runs; inconclusive means weak or mixed curves; inactive means no such curve, though single readings can be large; an effect the other way counts as inactive or inconclusive.
# Experiments:
# [1] = qHTS assay for identifying genotoxic compounds that show differential cytotoxicity against isogenic chicken DT40 cell lines with known DNA damage response pathways - Rad54/Ku70 mutant cell line (AID 743015); conditions: DT40 Rad54/Ku70 mutant viability, CellTiter-Glo, 40 h; activity change, negative = cytotoxicity: at 66.8 µM (top of the series) unless noted; further: nearly all actives have a fitted effect of over 60% in size
# [2] = qHTS assay to identify small molecule antagonists of the androgen receptor (AR) signaling pathway using the MDA cell line - cell viability counter screen (AID 743041; further: nearly all actives have a fitted effect of over 45% in size); conditions: MDA-kb2 viability, CellTiter-Fluor, 16 h, cells co-treated with R1881 androgen agonist; viability change, negative = cytotoxic: at 70.3 µM (top of the series) unless noted
# Procedure, shortened: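 Cells were plated at 3,000 per well and left 5 h. Compounds in DMSO were then pinned in, followed by R1881. After 16 h at 37C, CellTiter-Fluor fluorescence gave viability.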
# [3] = qHTS assay to identify small molecule antagonists of the thyroid receptor (TR) signaling pathway - cell viability counter screen (AID 743064); conditions: GH3.TRE-Luc viability, CellTiter-Fluor, 24 h; activity change, negative = cytotoxic: at 70.3 µM (top of the series) unless noted; further: nearly all actives have a fitted effect of over 50% in size
# Procedure, shortened: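 GH3.TRE-Luc cells, 4 h pre-plating; cpd + T3 1 nM final; 37 °C 23.5 h; CellTiter-Fluor 30 min; fluorescence read.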
# [4] = qHTS assay to identify small molecule antagonists of the androgen receptor (AR) signaling pathway - cell viability counter screen (AID 743033; further: nearly all actives have a fitted effect of over 45% in size)
# [5] = molecular target: Androgen receptor (Homo sapiens) (UniProt P10275); assay: qHTS assay to identify small molecule antagonists of the androgen receptor (AR) signaling pathway (AID 743035; active means well fitted inhibition curve with a large enough effect in the signal ratio in the repeat runs, not every such curve was filed as active; inconclusive means weak or mixed curves, or effect the other way; inactive means no such curve, though single readings can be large or run the other way; the % refers to the signal ratio); conditions: HEK293 AR-UAS-bla, R1881-stimulated, beta-lactamase FRET, 16 h; activity change, negative = inhibition: at 58.5 µM (top of the series) unless noted
# Procedure, shortened: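 Antagonism is scored as loss of R1881-driven beta-lactamase reporter expression in HEK293 cells carrying the reporter under a UAS element, after 16 h co-treatment at 37C and a 2 h room-temperature FRET substrate read.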
# [6] = molecular target: Androgen receptor (Homo sapiens) (UniProt P10275); assay: qHTS assay to identify small molecule agonists of the androgen receptor (AR) signaling pathway (AID 743036; active means well fitted activation curve with a large enough effect in the signal ratio in the repeat runs, with a control signal flat, not every such curve was filed as active; inconclusive means weak or mixed curves, or effect the other way; inactive means no such curve, though single readings can be large or run the other way; the % refers to the signal ratio; on activation: on the % scale 0 is the no-effect control and ±100 the full control effect); conditions: HEK293 AR-UAS-bla GripTite, beta-lactamase FRET ratio, 16 h; activation: at 62.4 µM (top of the series) unless noted
# Procedure, shortened: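 AR-bla HEK293 cells, 2,000/well; 4 h preincubation 37C/5% CO2; compound (DMSO) 16 h at 37C; LiveBLAzer B/G FRET substrate 2 h RT; fluorescence intensity read-out.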
# [7] = molecular target: Androgen receptor (Homo sapiens) (UniProt P10275); assay: qHTS assay to identify small molecule antagonists of the androgen receptor (AR) signaling pathway using the MDA cell line (AID 743042; further: nearly all actives have a fitted effect of over 55% in size)
# Procedure, shortened: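 Antagonist mode: compounds plus R1881 agonist added to MDA-kb2 AR-luc cells, incubated 16 h at 37C. Luciferase reporter luminescence quantified, with multiplexed CellTiter-Fluor readout for cell viability.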
# [8] = qHTS assay to identify small molecule antagonists of the thyroid receptor (TR) signaling pathway (AID 743065); further: nearly all actives have a fitted effect of over 55% in size
# Procedure, shortened: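 Antagonism measured as loss of luciferase signal in GH3 cells stably carrying a TRE-luciferase reporter, co-treated with compound and T3 (1 nM final) for 23.5 h at 37 C. Viability was read in the same well by CellTiter-Fluor.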
# Potency means the concentration at half of the fitted maximal effect; tags describe the fitted curve by direction and shape or compound fluorescence and quenching.
# UniProt P10275, sequence (P10275 whole entry, looked up): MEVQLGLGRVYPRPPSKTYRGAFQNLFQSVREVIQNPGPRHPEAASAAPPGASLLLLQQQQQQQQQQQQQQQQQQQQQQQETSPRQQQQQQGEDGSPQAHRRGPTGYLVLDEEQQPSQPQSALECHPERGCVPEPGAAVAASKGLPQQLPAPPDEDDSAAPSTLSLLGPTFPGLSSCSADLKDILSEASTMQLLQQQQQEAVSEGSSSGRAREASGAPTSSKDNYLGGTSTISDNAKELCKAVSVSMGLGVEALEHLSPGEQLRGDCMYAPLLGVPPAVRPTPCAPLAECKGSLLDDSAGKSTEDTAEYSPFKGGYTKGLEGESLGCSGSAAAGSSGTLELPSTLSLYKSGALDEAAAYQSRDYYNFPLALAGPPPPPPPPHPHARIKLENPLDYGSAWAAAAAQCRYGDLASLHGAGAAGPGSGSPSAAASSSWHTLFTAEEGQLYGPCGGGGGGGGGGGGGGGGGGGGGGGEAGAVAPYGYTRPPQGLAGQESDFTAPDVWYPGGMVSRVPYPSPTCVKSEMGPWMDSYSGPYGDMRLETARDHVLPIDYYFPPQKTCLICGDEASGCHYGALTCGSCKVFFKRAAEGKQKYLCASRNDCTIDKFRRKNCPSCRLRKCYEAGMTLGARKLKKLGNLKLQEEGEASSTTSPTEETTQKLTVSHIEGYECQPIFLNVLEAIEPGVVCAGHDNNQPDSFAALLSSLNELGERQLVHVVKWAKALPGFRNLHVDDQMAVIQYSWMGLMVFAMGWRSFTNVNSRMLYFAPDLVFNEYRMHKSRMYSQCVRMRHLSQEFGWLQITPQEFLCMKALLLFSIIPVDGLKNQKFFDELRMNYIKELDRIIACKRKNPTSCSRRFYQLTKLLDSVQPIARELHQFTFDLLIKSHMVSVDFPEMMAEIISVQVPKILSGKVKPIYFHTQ
Structure (SMILES),Potency [1],Potency [2],Potency [3],Potency [4],Potency [5],Potency [6],activation [6],Potency [7],Potency [8]
CCC(C)(C)c1ccc(CC(C)CN2C[C@@H](C)O[C@@H](C)C2)cc1 (stereo not given in full),active: 0.841 µM,"inconclusive: 33.5 µM [cytotoxic, single point]",active: 11.9 µM,–,–,–,–,–,–
O=C1OC2(c3ccccc31)c1cc(Br)c(O)c(Br)c1Oc1c2cc(Br)c(O)c1Br,"inconclusive: 44.5 µM [cytotoxic, partial curve]",active: 11.9 µM and active: 7.81 µM and active: 17.7 µM,active: 6.68 µM and active: 5.53 µM and active: 7.91 µM,–,–,–,–,–,–
O=C1C=CC(=O)N1c1ccccc1,active: 1.37 µM,–,active: 4.86 µM,active: 12.3 µM,inconclusive: 8.71 µM [full curve],"inconclusive: 54.9 µM [activator, single point]",–,–,–
C=C1C[C@H]2[C@@H]3C=C(C)C4=CC(=O)CC[C@]4(C)[C@H]3CC[C@]2(C)[C@@]1(OC(C)=O)C(C)=O,active: 10.6 µM and active: 17.6 µM,"inconclusive: 44.2 µM [cytotoxic, partial curve, poor fit]",–,"inconclusive: 31.6 µM [cytotoxic, single point]",–,–,inconclusive: -0.0386%,–,–
c1ccc(Nc2cccc3ccccc23)cc1,active: 55.2 µM and active: 61.1 µM,"inconclusive: 78 µM [cytotoxic, single point]",active: 69.5 µM and inconclusive: 68.6 µM [cytotoxic],"inconclusive: 49.6 µM [cytotoxic, partial curve] and inconclusive: 61.7 µM [cytotoxic, partial curve, poor fit]",–,–,–,–,–
O=C(Nc1ccc(Cl)cc1)Nc1ccc(Cl)c(Cl)c1,active: 2.66 µM and active: 5.42 µM and active: 2.17 µM,"inconclusive: 15.6 µM [cytotoxic, single point] and inconclusive: 43.1 µM [cytotoxic, partial curve] and active: 24.3 µM","inconclusive: 4.83 µM [cytotoxic, full curve, poor fit]",active: 3.38 µM and active: 1.94 µM and active: 3.89 µM,–,–,inconclusive: 62.8%,inconclusive: 11.9 µM [inhibitor],–
CCN=C1C=CC(=C(c2ccc(N(CC)CC)cc2)c2ccc(N(CC)CC)cc2)c2ccccc21,active: 0.0192 µM,active: 0.121 µM,active: 0.542 µM,active: 0.0434 µM,"inconclusive: 13.7 µM [falling, full curve]","inconclusive: 43.4 µM [cytotoxic, partial curve]",–,–,active: 121 nM
CC(=O)OC/C=C(C)/C=C/C=C(C)/C=C/C1=C(C)CCCC1(C)C,"inconclusive: 33.5 µM [cytotoxic, single point]",–,"inconclusive: 66.9 µM [cytotoxic, single point]","inconclusive: 38 µM [cytotoxic, partial curve] and inconclusive: 34.7 µM [cytotoxic, partial curve, poor fit]",–,–,–,–,"inconclusive: 75.1 µM [inhibitor, single point] and inconclusive: 68.6 µM [inhibitor, single point]"
CCCCCCCCNC(C)C(O)c1ccc(SC(C)C)cc1 (stereo not given),active: 1.68 µM,"inconclusive: 33.5 µM [cytotoxic, single point]",–,active: 21.3 µM,"inconclusive: 26.8 µM [falling, single point]",inconclusive: 15.1 µM,–,–,–
O=C(c1ccc(OCCN2CCCCC2)cc1)c1c(-c2ccc(O)cc2)sc2cc(O)ccc12,active: 7.5 µM and active: 9.7 µM and active: 1.37 µM,"inconclusive: 29.8 µM [cytotoxic, single point] and active: 68.7 µM and active: 61.1 µM",active: 6.68 µM and active: 4.33 µM and active: 6.11 µM,"inconclusive: 21.3 µM [cytotoxic, partial curve] and active: 21.9 µM and active: 38.9 µM",–,–,–,–,–

# — PubChem BioAssay (Tox21)
